Assay results reported in paper PMC4336329 (PLoS ONE, 2015).
In all, about 310,000 compounds went through this assay and about 2,200 (0.71%) showed an effect of 50% or more. The effect is printed as a negative number. The list shows a part of the results.

These compounds were tested against human ether-à-go-go-related gene (hERG) potassium channel (human, UniProt Q12809) (assay: primary screen, population patch clamp on CHO cells stably expressing hERG).
human ether-à-go-go-related gene (hERG) potassium channel, sequence (Q12809 whole entry, looked up): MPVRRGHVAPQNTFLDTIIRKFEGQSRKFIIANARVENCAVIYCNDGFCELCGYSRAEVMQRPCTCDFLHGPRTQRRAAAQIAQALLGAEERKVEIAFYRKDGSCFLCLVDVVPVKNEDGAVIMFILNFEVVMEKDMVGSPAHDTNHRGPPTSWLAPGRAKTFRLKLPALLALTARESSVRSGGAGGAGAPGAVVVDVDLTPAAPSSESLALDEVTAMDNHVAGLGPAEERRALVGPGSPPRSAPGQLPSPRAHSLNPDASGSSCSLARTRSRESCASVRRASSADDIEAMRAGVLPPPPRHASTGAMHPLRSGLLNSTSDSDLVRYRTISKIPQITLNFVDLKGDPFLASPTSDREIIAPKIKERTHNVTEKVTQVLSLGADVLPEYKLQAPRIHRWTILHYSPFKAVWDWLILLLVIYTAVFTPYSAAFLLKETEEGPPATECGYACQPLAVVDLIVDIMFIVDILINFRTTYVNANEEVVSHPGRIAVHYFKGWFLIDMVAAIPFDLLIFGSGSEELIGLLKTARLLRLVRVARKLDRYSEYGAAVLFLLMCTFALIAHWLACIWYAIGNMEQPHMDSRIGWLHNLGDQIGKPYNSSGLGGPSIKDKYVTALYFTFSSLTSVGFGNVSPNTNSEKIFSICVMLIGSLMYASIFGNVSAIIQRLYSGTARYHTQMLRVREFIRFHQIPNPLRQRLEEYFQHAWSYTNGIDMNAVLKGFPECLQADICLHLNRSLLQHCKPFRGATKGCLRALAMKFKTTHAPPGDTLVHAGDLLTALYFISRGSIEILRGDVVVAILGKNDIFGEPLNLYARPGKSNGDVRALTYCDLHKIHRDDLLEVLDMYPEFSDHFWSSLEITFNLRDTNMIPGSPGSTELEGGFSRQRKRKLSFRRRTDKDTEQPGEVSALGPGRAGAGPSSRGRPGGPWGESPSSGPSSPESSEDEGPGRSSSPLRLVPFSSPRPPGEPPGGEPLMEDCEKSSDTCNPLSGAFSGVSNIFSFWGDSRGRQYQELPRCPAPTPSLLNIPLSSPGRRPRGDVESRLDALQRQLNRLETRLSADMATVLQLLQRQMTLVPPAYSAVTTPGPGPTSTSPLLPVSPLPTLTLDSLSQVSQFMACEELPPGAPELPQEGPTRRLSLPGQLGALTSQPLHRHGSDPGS
For `O=C(CCN1CCN(C/C=C/c2ccccc2)CC1)Nc1ccccc1F.O=C(O)C(=O)O`, the “hERG current change (%, negative = inhibition) at 1uM” value was -81.2%.
For `COc1ccccc1N(CC(=O)Nc1ccc2c(c1)OCCO2)S(=O)(=O)c1ccc(C)cc1`, the “hERG current change (%, negative = inhibition) at 1uM” value was 13.8%.
For `Cn1c(=O)c2c(nc(NCc3cccnc3)n2Cc2ccc(Cl)cc2)n(C)c1=O`, the “hERG current change (%, negative = inhibition) at 1uM” value was 3.92%.
In the case of `Cc1ccc(CN2CCN(Cc3cnc(N4CCOCC4)s3)CC2CCO)cc1` (stereo not drawn), the “hERG current change (%, negative = inhibition) at 1uM” value is reported as -14.3%.
`CCCCn1c(N)c(N2CCOCC2)c(=O)n(CC(=O)NC(C)c2ccccc2)c1=O` (stereo not drawn) was tested, and the “hERG current change (%, negative = inhibition) at 1uM” value was 10.6%.
In the case of `COc1ccc(-n2c(-c3ccc(C)cc3)nc3ccccc3c2=O)cc1`, the “hERG current change (%, negative = inhibition) at 1uM” value is reported as 0.946%.
In the case of `Cc1ccc(NC(=O)Nc2ccccc2C#N)c(Cl)c1`, the “hERG current change (%, negative = inhibition) at 1uM” value is reported as 10.7%.
With `CC1=C(C(N)=O)C(c2cccs2)n2nc(-c3cccc(C)c3)nc2N1` (stereo not drawn) the “hERG current change (%, negative = inhibition) at 1uM” value was -9.92%.
For `CN1C(C(=O)Nc2ccc(F)cc2F)=CC(c2ccco2)=NS1(=O)=O`, the “hERG current change (%, negative = inhibition) at 1uM” value was -9.69%.
With `Fc1cccc(NC(=S)N2CCn3cccc3C2c2cccnc2)c1` (stereo not drawn) the “hERG current change (%, negative = inhibition) at 1uM” value was 4.28%.
`O=C(CCN1CCCCC1)NCC1OCCc2ccccc21` (stereo not drawn) was tested, and the “hERG current change (%, negative = inhibition) at 1uM” value was -26.7%.
For `S=C(NC1CCCCC1)N(CCc1ccccc1)CCc1ccccc1`, the “hERG current change (%, negative = inhibition) at 1uM” value was 2.69%.
With `CCOC(=O)c1sc(-c2cccc([N+](=O)[O-])c2)cc1N` the “hERG current change (%, negative = inhibition) at 1uM” value was 17%.
For `CCc1cccc(C)c1NC(=O)C1CCCO1` (stereo not drawn), the “hERG current change (%, negative = inhibition) at 1uM” value was 8.08%.
`CNC(=S)Nc1sc2c(c1C(=O)OC)CCC2` was tested, and the “hERG current change (%, negative = inhibition) at 1uM” value was 11.1%.
In the case of `O=C(NC(=S)Nc1ccc2oc(-c3cccnc3)nc2c1)c1cccc(Cl)c1`, the “hERG current change (%, negative = inhibition) at 1uM” value is reported as 0.287%.
`CCCNc1nc2c(c(=O)[nH]c(=O)n2C)n1CCc1ccccc1` was tested, and the “hERG current change (%, negative = inhibition) at 1uM” value was 9.41%.
`COC(=O)c1sccc1NC(=O)c1c(C)c(-c2cccc(Cl)c2)nc2ccccc12` was tested, and the “hERG current change (%, negative = inhibition) at 1uM” value was 19.3%.
`O=C(CNC(=O)c1ccccc1F)NCCOc1ccccc1Cl` was tested, and the “hERG current change (%, negative = inhibition) at 1uM” value was 15.9%.
In the case of `CCOC(=O)CNC(=O)c1cn(CC(C)C)c(=O)c2cc(OC)c(OC)cc12`, the “hERG current change (%, negative = inhibition) at 1uM” value is reported as -2.37%.
`CC(C)N(Cc1nc(-c2ccc(Cl)cc2)no1)C(=O)C12CC3CC(CC(C3)C1)C2` was tested, and the “hERG current change (%, negative = inhibition) at 1uM” value was 10.5%.
With `COc1ccc(C)cc1NC(=O)C1CCCN(S(=O)(=O)c2ccc3c(c2)CCCN3C(C)=O)C1` (stereo not drawn) the “hERG current change (%, negative = inhibition) at 1uM” value was 10%.
`CCOC(=O)C(NC(=O)c1ccccc1)(Nc1cc(C)on1)C(F)(F)F` (stereo not drawn) was tested, and the “hERG current change (%, negative = inhibition) at 1uM” value was 6.71%.
For `C(=N\Nc1nc(N2CCOCC2)nc(N2CCOCC2)n1)/c1ccncc1`, the “hERG current change (%, negative = inhibition) at 1uM” value was 13.2%.
For `Cc1ccc(OCC(=O)NNC(=S)NC(=O)C2CCCCC2)c(C)c1`, the “hERG current change (%, negative = inhibition) at 1uM” value was 0.991%.
For `O=C1C(=O)N(c2ccccn2)C(c2cccc([N+](=O)[O-])c2)/C1=C(/O)c1ccc(Br)cc1` (stereo not drawn), the “hERG current change (%, negative = inhibition) at 1uM” value was 14%.
With `Cc1ccc2[nH]c(=O)c(CN(CCCN(C)C)C(=O)Nc3ccc(Cl)cc3)cc2c1` the “hERG current change (%, negative = inhibition) at 1uM” value was -62.7%.
For `COC(=O)CC1C(=O)NCCN1C(=S)Nc1ccccc1Cl` (stereo not drawn), the “hERG current change (%, negative = inhibition) at 1uM” value was 13%.
With `O=C(CN1C(=O)NC2(CCCCC2)C1=O)Nc1cccc(S(=O)(=O)N2CCCC2)c1` the “hERG current change (%, negative = inhibition) at 1uM” value was -1.64%.
In the case of `Cc1nc(SCC(=O)Nc2ccc(CN3CCCC3)cc2)c2c(C)c(C)sc2n1`, the “hERG current change (%, negative = inhibition) at 1uM” value is reported as -2.17%.
`C/C(=N\OCC(=O)Nc1ccccc1Br)c1cccs1` was tested, and the “hERG current change (%, negative = inhibition) at 1uM” value was 10.7%.
`Cc1cc(-c2ccc(Cl)s2)n[nH]1` was tested, and the “hERG current change (%, negative = inhibition) at 1uM” value was 14%.
`Cc1ccc(CNS(=O)(=O)c2ccc3c(c2)NC(=O)CO3)cc1` was tested, and the “hERG current change (%, negative = inhibition) at 1uM” value was 5.26%.
With `CCOc1ccc(N(CC(=O)NCc2cccnc2)S(=O)(=O)c2ccc(F)cc2)cc1` the “hERG current change (%, negative = inhibition) at 1uM” value was 7.16%.
For `N#CC(CCN1CCOCC1)(c1ccccc1)c1ccccc1`, the “hERG current change (%, negative = inhibition) at 1uM” value was 5.65%.
For `O=C(O)CCC(=O)N1N=C(c2cccs2)CC1c1ccc(Br)cc1` (stereo not drawn), the “hERG current change (%, negative = inhibition) at 1uM” value was 9.88%.
With `COc1ccc(Cc2nnc(SCC(=O)N3CCCC3)o2)cc1` the “hERG current change (%, negative = inhibition) at 1uM” value was 12.9%.
In the case of `Cc1nc(N/N=C/c2ccccn2)sc1C`, the “hERG current change (%, negative = inhibition) at 1uM” value is reported as 21.1%.
For `COCCCN=C(c1ccco1)n1c(=S)nc(-c2ccco2)n(CCCOC)c1=S`, the “hERG current change (%, negative = inhibition) at 1uM” value was -7.66%.
In the case of `CCN(CC)S(=O)(=O)c1cc([N+](=O)[O-])ccc1NNC(=O)Nc1ccccc1OC`, the “hERG current change (%, negative = inhibition) at 1uM” value is reported as 5.04%.
For `CC12CCC(C(=O)N3CCCc4ccccc43)(OC1=O)C2(C)C` (stereo not drawn), the “hERG current change (%, negative = inhibition) at 1uM” value was 14.1%.
With `Cc1ccc(C(=O)Nc2nc3ccc(S(C)(=O)=O)cc3s2)s1` the “hERG current change (%, negative = inhibition) at 1uM” value was 10.5%.
In the case of `Cc1nc2c(Cl)cc(Cl)cc2[nH]1`, the “hERG current change (%, negative = inhibition) at 1uM” value is reported as 5.13%.
For `Cc1ccc(S(=O)(=O)N2CCCC2C(=O)Nc2cc(C)on2)cc1` (stereo not drawn), the “hERG current change (%, negative = inhibition) at 1uM” value was 11.4%.
For `COc1cccc(C(=O)COc2ccccc2N2C(=O)C3C4C=CC(C4)C3C2=O)c1` (stereo not drawn), the “hERG current change (%, negative = inhibition) at 1uM” value was 0.0618%.
With `O=C(/C=C/c1cccc(Cl)c1)NCc1cccs1` the “hERG current change (%, negative = inhibition) at 1uM” value was 1.58%.
In the case of `Cc1cccc2cc(CN(CC3CCCO3)C(c3nnnn3Cc3ccco3)C(C)C)c(=O)[nH]c12` (stereo not drawn), the “hERG current change (%, negative = inhibition) at 1uM” value is reported as 7.31%.
With `Cc1ccccc1CNc1nnnn1C` the “hERG current change (%, negative = inhibition) at 1uM” value was 11.5%.
With `O=C1CN=C(c2ccccc2)c2c(sc3c2CCCC3)N1` the “hERG current change (%, negative = inhibition) at 1uM” value was 5.05%.
`COC(=O)N1CC=CC1(C)C(=O)NCc1cc(F)cc(C(F)(F)F)c1` (stereo not drawn) was tested, and the “hERG current change (%, negative = inhibition) at 1uM” value was 11.4%.
In the case of `CC(C)c1ccc(/C=C2\C(=N)N3N=C(CC(=O)N4CCCCC4)SC3=NC2=O)cc1`, the “hERG current change (%, negative = inhibition) at 1uM” value is reported as 21.5%.
In the case of `OC(COc1cccc2ccccc12)CN1CCN(c2ccccc2)CC1` (stereo not drawn), the “hERG current change (%, negative = inhibition) at 1uM” value is reported as 7.19%.
For `CN(C)C/C=C(\c1ccc(Br)cc1)c1cccnc1.Cl.O`, the “hERG current change (%, negative = inhibition) at 1uM” value was -35.3%.
`CN1CCN(NC(=O)CC(C)(C)C)CC1` was tested, and the “hERG current change (%, negative = inhibition) at 1uM” value was 1.81%.
With `O=C(O)c1c(-n2cccc2)sc2c1CCCC2` the “hERG current change (%, negative = inhibition) at 1uM” value was 11.4%.
For `COC(=O)C1=C(O)CSC1=Nc1ccccc1`, the “hERG current change (%, negative = inhibition) at 1uM” value was -9.82%.
In the case of `O=C(c1ccccc1)c1nn(-c2ccc(Cl)cc2)cc1C(=O)c1cc2ccccc2oc1=O`, the “hERG current change (%, negative = inhibition) at 1uM” value is reported as 6.34%.
